Data published in the supplement of paper PMC4967469.
Lines with a small IC50 respond at low doses; fits outside the tested doses are given as limits. AUC, from the same fit, is the share of area under the viability curve across the 256-fold dose range: 1 means no effect, lower means more sensitive. For some assays here: A top dose marked as inferred was calculated from the reported fits.

Tests used:
Test in all cases: Viability of human cancer cell lines after 72 h of drug (GDSC screen)
CX-5461 = compound: Cc1cnc(CNC(=O)c2c(=O)c3ccc(N4CCCN(C)CC4)nc3n3c2sc2ccccc23)cn1 [CX-5461]; details: top dose 10.24 µM; top dose inferred
Protocol: (§1)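 Human cancer cell lines in 384-well plates, medium with 10% serum, drug for 72 h over a 256-fold dose range (nine 2-fold or five 4-fold steps up to the top dose). Adherent lines were fixed and stained with the nucleic acid dye Syto60, suspension lines read with resazurin; signal relative to control wells, capped at 0 and 100%. One two-parameter sigmoid per drug and line, fitted in a mixed model over all curves with the slope shared within a line.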

STF-62247 = compound: Cc1cccc(Nc2nc(-c3ccncc3)cs2)c1 [STF-62247]; details: top dose 10.24 µM; top dose inferred
Protocol: as §1

CP724714 = compound: COCC(=O)NC/C=C/c1ccc2ncnc(Nc3ccc(Oc4ccc(C)nc4)c(C)c3)c2c1 [CP724714]; details: top dose 10.24 µM; top dose inferred
Protocol: as §1

Obatoclax mesylate = compound: COC1=CC(c2cc3ccccc3[nH]2)=N/C1=C\c1[nH]c(C)cc1C [Obatoclax mesylate]; details: top dose 16 µM
Protocol: as §1

## 22RV1 (prostate, adherent)
CX-5461
  AUC: 0.858
  IC50: > 10.2 µM
STF-62247
  AUC: 0.982
  IC50: > 10.2 µM
CP724714
  AUC: 0.967
  IC50: > 10.2 µM
Obatoclax mesylate
  AUC: 0.307
  IC50: 0.25 µM

## 42-MG-BA (glioma, adherent)
CX-5461
  AUC: 0.947
  IC50: > 10.2 µM
STF-62247
  AUC: 0.98
  IC50: > 10.2 µM
CP724714
  AUC: 0.985
  IC50: > 10.2 µM
Obatoclax mesylate
  AUC: 0.658
  IC50: 2.83 µM

## 201T (lung adenocarcinoma, adherent)
CX-5461
  AUC: 0.939
  IC50: > 10.2 µM
STF-62247
  AUC: 0.977
  IC50: > 10.2 µM
CP724714
  AUC: 0.974
  IC50: > 10.2 µM
Obatoclax mesylate
  AUC: 0.367
  IC50: 0.389 µM

## 451Lu (melanoma, adherent)
CX-5461
  AUC: 0.955
  IC50: > 10.2 µM
STF-62247
  AUC: 0.981
  IC50: > 10.2 µM
CP724714
  AUC: 0.985
  IC50: > 10.2 µM
Obatoclax mesylate
  AUC: 0.114
  IC50: < 0.0625 µM

## 639-V (bladder, adherent)
CX-5461
  AUC: 0.944
  IC50: > 10.2 µM
STF-62247
  AUC: 0.98
  IC50: > 10.2 µM
CP724714
  AUC: 0.985
  IC50: > 10.2 µM
Obatoclax mesylate
  AUC: 0.206
  IC50: 0.163 µM

## 647-V (bladder, adherent)
CX-5461
  AUC: 0.972
  IC50: > 10.2 µM
STF-62247
  AUC: 0.973
  IC50: > 10.2 µM
CP724714
  AUC: 0.982
  IC50: > 10.2 µM
Obatoclax mesylate
  AUC: 0.191
  IC50: 0.12 µM

## 769-P (kidney, adherent)
CX-5461
  AUC: 0.827
  IC50: 7.04 µM
STF-62247
  AUC: 0.904
  IC50: > 10.2 µM
CP724714
  AUC: 0.919
  IC50: > 10.2 µM
Obatoclax mesylate
  AUC: 0.135
  IC50: < 0.0625 µM

## 786-0 (kidney, adherent)
CX-5461
  AUC: 0.714
  IC50: 2.44 µM
STF-62247
  AUC: 0.89
  IC50: 10.2 µM
CP724714
  AUC: 0.965
  IC50: > 10.2 µM
Obatoclax mesylate
  AUC: 0.025
  IC50: < 0.0625 µM

## 5637 (bladder, adherent)
CX-5461
  AUC: 0.93
  IC50: > 10.2 µM
STF-62247
  AUC: 0.983
  IC50: > 10.2 µM
CP724714
  AUC: 0.981
  IC50: > 10.2 µM
Obatoclax mesylate
  AUC: 0.142
  IC50: 0.089 µM

## 8305C (thyroid, adherent)
CX-5461
  AUC: 0.982
  IC50: > 10.2 µM
STF-62247
  AUC: 0.982
  IC50: > 10.2 µM
CP724714
  AUC: 0.977
  IC50: > 10.2 µM
Obatoclax mesylate
  AUC: 0.261
  IC50: 0.164 µM

## 8505C (thyroid, adherent)
CX-5461
  AUC: 0.898
  IC50: > 10.2 µM
STF-62247
  AUC: 0.977
  IC50: > 10.2 µM
CP724714
  AUC: 0.984
  IC50: > 10.2 µM
Obatoclax mesylate
  AUC: 0.091
  IC50: < 0.0625 µM

## 23132-87 (stomach, adherent)
CX-5461
  AUC: 0.719
  IC50: 2.74 µM
STF-62247
  AUC: 0.983
  IC50: > 10.2 µM
CP724714
  AUC: 0.985
  IC50: > 10.2 µM
Obatoclax mesylate
  AUC: 0.473
  IC50: 0.841 µM

## A172 (glioma, adherent)
CX-5461
  AUC: 0.913
  IC50: > 10.2 µM
STF-62247
  AUC: 0.986
  IC50: > 10.2 µM
CP724714
  AUC: 0.977
  IC50: > 10.2 µM
Obatoclax mesylate
  AUC: 0.493
  IC50: 0.955 µM

## A204 (rhabdomyosarcoma, adherent)
CX-5461
  AUC: 0.654
  IC50: 1.95 µM
STF-62247
  AUC: 0.958
  IC50: > 10.2 µM
CP724714
  AUC: 0.974
  IC50: > 10.2 µM
Obatoclax mesylate
  AUC: 0.42
  IC50: 0.565 µM

## A375 (melanoma, adherent)
CX-5461
  AUC: 0.818
  IC50: 4.51 µM
STF-62247
  AUC: 0.989
  IC50: > 10.2 µM
CP724714
  AUC: 0.991
  IC50: > 10.2 µM
Obatoclax mesylate
  AUC: 0.023
  IC50: < 0.0625 µM

## A427 (non-small cell lung carcinoma, adherent)
CX-5461
  AUC: 0.908
  IC50: > 10.2 µM
STF-62247
  AUC: 0.955
  IC50: > 10.2 µM
CP724714
  AUC: 0.979
  IC50: > 10.2 µM
Obatoclax mesylate
  AUC: 0.172
  IC50: 0.1 µM

## A431 (skin, adherent)
CX-5461
  AUC: 0.449
  IC50: 0.466 µM
STF-62247
  AUC: 0.987
  IC50: > 10.2 µM
CP724714
  AUC: 0.947
  IC50: > 10.2 µM
Obatoclax mesylate
  AUC: 0.14
  IC50: 0.0802 µM

## A498 (kidney, adherent)
CX-5461
  AUC: 0.977
  IC50: > 10.2 µM
STF-62247
  AUC: 0.972
  IC50: > 10.2 µM
CP724714
  AUC: 0.974
  IC50: > 10.2 µM
Obatoclax mesylate
  AUC: 0.979
  IC50: > 16 µM

## A673 (rhabdomyosarcoma, adherent)
CX-5461
  AUC: 0.99
  IC50: > 10.2 µM
STF-62247
  AUC: 0.988
  IC50: > 10.2 µM
CP724714
  AUC: 0.984
  IC50: > 10.2 µM
Obatoclax mesylate
  AUC: 0.463
  IC50: 0.8 µM

## A2058 (melanoma, adherent)
CX-5461
  AUC: 0.99
  IC50: > 10.2 µM
STF-62247
  AUC: 0.984
  IC50: > 10.2 µM
CP724714
  AUC: 0.982
  IC50: > 10.2 µM
Obatoclax mesylate
  AUC: 0.136
  IC50: 0.0861 µM

## A2780 (ovary, semi-adherent)
CX-5461
  AUC: 0.542
  IC50: 0.839 µM
STF-62247
  AUC: 0.918
  IC50: > 10.2 µM
CP724714
  AUC: 0.927
  IC50: > 10.2 µM
Obatoclax mesylate
  AUC: 0.286
  IC50: 0.241 µM

## ABC-1 (lung adenocarcinoma, adherent)
CX-5461
  AUC: 0.935
  IC50: > 10.2 µM
STF-62247
  AUC: 0.982
  IC50: > 10.2 µM
CP724714
  AUC: 0.902
  IC50: > 10.2 µM
Obatoclax mesylate
  AUC: 0.404
  IC50: 0.516 µM

## ACHN (kidney, adherent)
CX-5461
  AUC: 0.907
  IC50: > 10.2 µM
STF-62247
  AUC: 0.962
  IC50: > 10.2 µM
CP724714
  AUC: 0.944
  IC50: > 10.2 µM
Obatoclax mesylate
  AUC: 0.209
  IC50: 0.12 µM

## AGS (stomach, adherent)
CX-5461
  AUC: 0.972
  IC50: > 10.2 µM
STF-62247
  AUC: 0.99
  IC50: > 10.2 µM
CP724714
  AUC: 0.981
  IC50: > 10.2 µM
Obatoclax mesylate
  AUC: 0.343

## AN3-CA (endometrium, adherent)
CX-5461
  AUC: 0.985
  IC50: > 10.2 µM
STF-62247
  AUC: 0.985
  IC50: > 10.2 µM
CP724714
  AUC: 0.982
  IC50: > 10.2 µM
Obatoclax mesylate
  AUC: 0.247
  IC50: 0.172 µM

## ASH-3 (thyroid, adherent)
CX-5461
  AUC: 0.988
  IC50: > 10.2 µM
STF-62247
  AUC: 0.988
  IC50: > 10.2 µM
CP724714
  AUC: 0.985
  IC50: > 10.2 µM
Obatoclax mesylate
  AUC: 0.297
  IC50: 0.269 µM

## AU565 (breast, adherent)
CX-5461
  AUC: 0.984
  IC50: > 10.2 µM
STF-62247
  AUC: 0.98
  IC50: > 10.2 µM
CP724714
  AUC: 0.759
  IC50: 3.96 µM
Obatoclax mesylate
  AUC: 0.367
  IC50: 0.411 µM

## AsPC-1 (pancreas, adherent)
CX-5461
  AUC: 0.952
  IC50: > 10.2 µM
STF-62247
  AUC: 0.967
  IC50: > 10.2 µM
CP724714
  AUC: 0.969
  IC50: > 10.2 µM
Obatoclax mesylate
  AUC: 0.744
  IC50: 8.43 µM

## BCPAP (thyroid, adherent)
CX-5461
  AUC: 0.955
  IC50: > 10.2 µM
STF-62247
  AUC: 0.987
  IC50: > 10.2 µM
CP724714
  AUC: 0.988
  IC50: > 10.2 µM
Obatoclax mesylate
  AUC: 0.102
  IC50: < 0.0625 µM

## BEN (non-small cell lung carcinoma, adherent)
CX-5461
  AUC: 0.984
  IC50: > 10.2 µM
STF-62247
  AUC: 0.967
  IC50: > 10.2 µM
CP724714
  AUC: 0.97
  IC50: > 10.2 µM
Obatoclax mesylate
  AUC: 0.514
  IC50: 1.1 µM
